The record followed here is the RNAGym collection of RNA variant scans (doi:10.1101/gad.245936.114).

B1: tRNA (parent)
chain: CUCUCGGUAGCCAAGUUGGUUUAAGGCGCAAGACUUUAAUUUAUCACUACGAAAUCUUGAGAUCGGGCGUUCGACUCGCCCCCGGGAGAUUUUUUCCUCGAGCAA

Variants at the background level are over-represented here.

The variants in the data set derive from B1. As to the kind of experiment: nonsense suppression (GFP-seq) (ratio to wild type); higher = more function; SUP4oc tRNA, yeast GFP reporter sort-seq. The procedure, abridged:
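Raffinose/galactose medium with 80 mg/L adenine was used to grow yeast carrying genome-integrated tRNA variants (~3% random-mutation library), RFP, and a galactose-driven GFP ochre reporter. Cells went into GFP/RFP bins, which were Illumina-sequenced, and variants with ≥100 reads and ≥30 cells were scored. Nonsense suppression (GFPSEQ) is the per-bin median GFP/RFP weighted by estimated cell share and expressed relative to the unmutated parent tRNA.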
With C11A A62C, the nonsense suppression is ≤ 0.026.
With U71C C82U, the nonsense suppression is ≤ 0.026.
With U2G U55A C81A, the nonsense suppression is ≤ 0.026.
With U17C A60C G67C U70A, the nonsense suppression is ≤ 0.026.
G85A A87G: the nonsense suppression was determined as 1.18.
As for G78C G86C, the nonsense suppression was ≤ 0.026.
As for U58C U63C, the figure is 0.144; as for A23U G59C A74U, ≤ 0.026.
Regarding U4C C11G U76A, the nonsense suppression was ≤ 0.026.
Turning to A13C A54G G73C, the nonsense suppression was ≤ 0.026.
With A23G C80A, the nonsense suppression is ≤ 0.026.
Take U8A G18C G67C: the nonsense suppression was ≤ 0.026.
As for U4C G19A A24U G66A A87U, the nonsense suppression was ≤ 0.026.
For A31G U57C G78A G86A, the nonsense suppression is ≤ 0.026.
As for C5G C12A, the figure is ≤ 0.026; as for U4C G7U A31G, ≤ 0.026.
Next, A13U A14C U35A A60C C72U: ≤ 0.026; C3U C12G G88U: ≤ 0.026.
Turning to A14U C27G C72G G85C, the nonsense suppression was ≤ 0.026.
For C11G G26U, the nonsense suppression is ≤ 0.026.
On to A24G G26U G32C G73A, for which the nonsense suppression was ≤ 0.026.
U57A G69C C82G: the nonsense suppression is ≤ 0.026.
Turning to G18C C77U G86A, the nonsense suppression is ≤ 0.026.
For the variant C29G C82A G86A, the nonsense suppression was ≤ 0.026.
As for C34U A87U, the figure is ≤ 0.026; as for A14C C68U U70C C72G, ≤ 0.026; as for C5A C12A U55G G86C, ≤ 0.026.
Turning to G10A G66A, the nonsense suppression was ≤ 0.026.
Consider U21G A24G C27U G78U, for which the nonsense suppression was ≤ 0.026.
For C5U A23U G85A, the nonsense suppression was ≤ 0.026.
Next, C3A U63C G73U C79U: ≤ 0.026; C1G A60C G66C: ≤ 0.026.
In the case of A9G A62U, the nonsense suppression is ≤ 0.026.
G69C C79A: the nonsense suppression is ≤ 0.026.
As for A60U G67U U71G, the nonsense suppression was ≤ 0.026.
As for U2C G25U A33U U57G, the figure is ≤ 0.026; as for C11G C12G A31G G73C, ≤ 0.026.
For the variant G15U U35A U63C C68A, the nonsense suppression is ≤ 0.026.
As for U8A C11U, the nonsense suppression is ≤ 0.026.
As for G32C G66A, the figure is ≤ 0.026; as for C1G C5G U76C, ≤ 0.026; as for G26A G88A, ≤ 0.026.
Take G18A A23C A33U G66A: the nonsense suppression was ≤ 0.026.
As for G10U G19U, the figure is ≤ 0.026.
Next, U63G U71C A74G G85A A89G: ≤ 0.026; G15C G69U G78A: ≤ 0.026.
Turning to C5G A33C C77G A87U, the nonsense suppression was ≤ 0.026.
As to A13G C68A C81A, the nonsense suppression is ≤ 0.026.
As for A31U C34G U57A A62G, the nonsense suppression was ≤ 0.026.
G25U G67C G86U: the nonsense suppression is ≤ 0.026.
Take A23C A33U: the nonsense suppression was ≤ 0.026.
Next, U4G G10U C34U U57C: ≤ 0.026; C5A A24C G67A: ≤ 0.026.
Next, U16C A23C G28A: ≤ 0.026; U55C G84U: 0.0453; G7C C83G: ≤ 0.026.
For the variant U4A A24U U71C G78A C82A A87C, the nonsense suppression is ≤ 0.026.
Take C5G G66U C77U: the nonsense suppression was ≤ 0.026.
Regarding U4G G61U, the nonsense suppression came out at 0.804.
Take C3G G66C: the nonsense suppression is ≤ 0.026.
Next, A74G G85A: ≤ 0.026; C1G G6U G66U G73U: ≤ 0.026; A13G U20A U21A A23G C27G: ≤ 0.026.
Consider C3U C12G U16C G67A, for which the nonsense suppression was ≤ 0.026.
For G18C A54G, the nonsense suppression was ≤ 0.026.
With G28A G84A G86C, the nonsense suppression is ≤ 0.026.
Regarding C3U A87C, the nonsense suppression was ≤ 0.026.
As to C5U A24G G88A, the nonsense suppression was ≤ 0.026.
For the variant U8G G18U C29G A33G G78A, the nonsense suppression is ≤ 0.026.
For C1A U2G A31U, the nonsense suppression was ≤ 0.026.
As for G61C G65A, the nonsense suppression was ≤ 0.026.
For the variant A24G G28C, the nonsense suppression was ≤ 0.026.
Consider G6A A87C, for which the nonsense suppression is ≤ 0.026.
As for C3A U4G A14G U20C A24G, the nonsense suppression is ≤ 0.026.
Next, G25U C29G G65A: ≤ 0.026; C1A G85A: ≤ 0.026; G15C U71A G78A: ≤ 0.026.
On to A9U A24C G66C C83U G85A, for which the nonsense suppression is ≤ 0.026.
As for C11A U22C, the figure is ≤ 0.026; as for G69A C81G, ≤ 0.026; as for C29U A31C U71A U76C, ≤ 0.026.
For G15A A31G G73C U76C G84U, the nonsense suppression is ≤ 0.026.
On to C1A G10A C27U, for which the nonsense suppression is ≤ 0.026.
Consider C64U C72A A87G, for which the nonsense suppression was ≤ 0.026.
As to U2C C5A C75G C83A, the nonsense suppression is ≤ 0.026.
In the case of C1G A9G C68G A89C, the nonsense suppression was ≤ 0.026.
As to A9G C29G A74U C75A, the nonsense suppression is ≤ 0.026.
As for A9C C27G U35G A62C U70C, the figure is ≤ 0.026; as for C3G G6C U8C A30C U71C, ≤ 0.026.
For the variant C11U U20A A30U A33C, the nonsense suppression is ≤ 0.026.
C3A G65A C68U G86U: the nonsense suppression is ≤ 0.026.
Consider G25C U70C, for which the nonsense suppression was ≤ 0.026.
Turning to C29U G32U U57A G61U A89U, the nonsense suppression is ≤ 0.026.
For U17G G18C, the nonsense suppression was ≤ 0.026.
With C5U U21G C72A, the nonsense suppression was ≤ 0.026.
For C27G G28A, the nonsense suppression was ≤ 0.026.
As for A33C U35C C83A, the figure is ≤ 0.026; as for C5A G18C, ≤ 0.026; as for C64A C83G, ≤ 0.026.
With G10C G15C G32U U63A A89C, the nonsense suppression was ≤ 0.026.
Next, U70G C81U: ≤ 0.026; C3G U21C C83A: ≤ 0.026.
For C56U G67C U76G, the nonsense suppression is ≤ 0.026.
Next, C3A C29A G84U: ≤ 0.026; G19U C72A G88C: ≤ 0.026; C5G A9U: ≤ 0.026.
Consider G26A C27G, for which the nonsense suppression is ≤ 0.026.
Turning to U16A G28A, the nonsense suppression was determined as 1.11.
For the variant C12A A23G G28A, the nonsense suppression was ≤ 0.026.
Take U8C U55C G61U C75U: the nonsense suppression was ≤ 0.026.
In the case of A62U C64U, the nonsense suppression was ≤ 0.026.
Regarding G25C G28U U76C, the nonsense suppression was ≤ 0.026.
Take U20A A60U G61A C72U G85U G88A: the nonsense suppression was ≤ 0.026.
As to U4C G6U G26C C72G, the nonsense suppression is ≤ 0.026.
With C34U A62G, the nonsense suppression was ≤ 0.026.
In the case of C34U A62U, the nonsense suppression is ≤ 0.026.
For the variant C1U C11G A33G C56U C83G, the nonsense suppression was ≤ 0.026.
With A14U G59A U63G, the nonsense suppression was ≤ 0.026.
As for G7A A14G A62G U63C, the figure is ≤ 0.026; as for C56U C64G, ≤ 0.026.
For the variant C27U A33C G84U, the nonsense suppression is ≤ 0.026.
For the variant G73C C79A, the nonsense suppression was ≤ 0.026.
For G25U A87C, the nonsense suppression is ≤ 0.026.
In the case of A74U C81A A89G, the nonsense suppression is ≤ 0.026.
G6U U16C U17C G19U: the nonsense suppression is ≤ 0.026.
As to C3A C5U G7A A9G A14U G59U G86C, the nonsense suppression is ≤ 0.026.
With C11U U55C C81G, the nonsense suppression is ≤ 0.026.
As to C3A C5G U57C U70A C80A, the nonsense suppression is ≤ 0.026.
Consider U70G G88U A89C, for which the nonsense suppression is ≤ 0.026.
Turning to A62U G69A, the nonsense suppression is ≤ 0.026.
For the variant C1A C56A, the nonsense suppression was ≤ 0.026.
Consider G10U U57A U71A, for which the nonsense suppression is ≤ 0.026.
Take U2A A9U G10U G28C: the nonsense suppression was ≤ 0.026.
As for A9G A89G, the nonsense suppression was ≤ 0.026.
G7A U22C G59A: the nonsense suppression was ≤ 0.026.
In the case of C3G U17G, the nonsense suppression was ≤ 0.026.
For U55A C56A C64A U70C, the nonsense suppression is ≤ 0.026.
In the case of C1G A9U A13C U17C C29A G32U U70A, the nonsense suppression is ≤ 0.026.
As to C27U C34A C64U, the nonsense suppression is ≤ 0.026.
As to C5G G69A U70A, the nonsense suppression is ≤ 0.026.
As for U16G U22C G86A, the nonsense suppression was ≤ 0.026.
For the variant U35G C64G, the nonsense suppression was ≤ 0.026.
As for A31G G66A U70G G73C, the figure is ≤ 0.026.
Regarding C11U C29U, the nonsense suppression was ≤ 0.026.
As for C1U C79A A89G, the nonsense suppression is ≤ 0.026.
As for C29G G67U, the figure is ≤ 0.026; as for C11U A30G, ≤ 0.026; as for C5A C11U G18U G28U A54U G65A, ≤ 0.026.
Next, U4C G7C G84C A87U: ≤ 0.026; A24C C82A G85U: ≤ 0.026.
As to C34G G78C G85A, the nonsense suppression was ≤ 0.026.
As for C12A G61A, the figure is ≤ 0.026; as for C1U G15A, ≤ 0.026.
For the variant G19A G59A A87G A89U, the nonsense suppression was ≤ 0.026.
Next, A14G G84A: ≤ 0.026; U70C C82G: ≤ 0.026.
With G26C C27G U35C G59C G67A, the nonsense suppression is ≤ 0.026.
For U16G A30G C64G, the nonsense suppression is ≤ 0.026.
Next, G28U C29G: ≤ 0.026.
For C27U G28U G69A, the nonsense suppression is ≤ 0.026.
With G18C G61C G88C, the nonsense suppression is ≤ 0.026.
As for C29A C56G U70C G78A C81A, the figure is ≤ 0.026; as for A23U C29G A62C, ≤ 0.026; as for C5G G65A, ≤ 0.026.
C12A U17A A33G U76A C82A: the nonsense suppression is ≤ 0.026.
Next, A24G A74G C77G A89U: ≤ 0.026; A24C G67A U70A: ≤ 0.026.
